Assay results taken from PubChem BioAssay AID686979 (National Center for Advancing Translational Sciences (NCATS), 2013).
Values joined by “and” are separate entries in the source; they are usually repeats but may differ in a detail not shown here. Equal entries are not always repeated. Among all 420,000 compounds or so, about 50,000 (12%) were called active. The shares of active, inactive and inconclusive entries below differ from those in the screen. The call rests on the fitted dose curve; in most records, active means well fitted inhibition curve with a large enough effect; inconclusive means small, poorly fitted or top-dose-only effect; inactive means flat fitted curve, though single readings scatter. No potency is given beside an inconclusive call; the fits are too rough.
On the % scale 0 is the no-effect control and ±100 the full control effect; potency means the concentration at half of the fitted maximal effect; tags describe the fitted curve by direction and shape.

Experiment: qHTS for Inhibitors of human tyrosyl-DNA phosphodiesterase 1 (TDP1): qHTS in cells in presence of CPT; further: nearly all actives have a fitted effect of over 55% in size
Settings: chicken DT40 Tdp1-/-;hTDP1 cells + 20 nM CPT, ATP luminescence, 48 h; activity change, negative = growth inhibition: at 46.2 µM (top of the series) unless noted
In short: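 Chicken DT40 Tdp1-/- cells complemented with human TDP1, 400 cells/well, exposed to compounds plus 20 nM camptothecin for at least 48 h at 37 C; viability read as ATP content by CellTiter-Glo luminescence.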
With `CCN(CC)c1ccc(N=Cc2c(O)n(Cc3ccccc3)c(=O)[nH]c2=O)cc1` the Potency was active: 20.6 µM and active: 16.4 µM. With `CNC(=O)Oc1ccc(-c2cn3cc(C)ccc3n2)cc1` the Potency was inconclusive [inhibitor, partial curve, poor fit]. With `CC(=NCCC1=CCCCC1)c1c(O)[nH]c(=O)[nH]c1=O` the “activity change, negative = growth inhibition” value was inactive: -14.4%. In the case of `c1ccc(Cc2nn3c(Cn4cnc5ccccc54)nnc3s2)cc1`, the Potency is reported as inconclusive [inhibitor, single point]. With `O=C(COc1ccc2ccccc2c1)N1CCN(C2CCN(Cc3ccccc3)CC2)CC1` the Potency was active: 16.4 µM. For `COc1cccc(-c2sc3ccccc3c2-c2ccc(OCCN3CCOCC3)cc2)c1`, the Potency was inconclusive [inhibitor, single point]. For `CCN(CC)C(=O)c1cccc(-c2csc(C(C)(O)c3ccccc3)n2)c1` (stereo unspecified), the Potency was inconclusive [inhibitor, single point]. With `COC(=O)C1=C(c2ccc(OC)c(OC)c2)C[C@@H]2CC[C@H]1N2C(=O)NCCNC(C)=O` the “activity change, negative = growth inhibition” value was inactive: -1.24%. In the case of `CC(C)c1oc(=O)cc2c1[C@@H](O)[C@H]1OC(=O)[C@@]3(C)C[C@@H](O)[C@@H](O)[C@@]2(C)C13` (stereo partly specified), the Potency is reported as active: 2.06 µM. With `O=C(Nc1cccc(C(F)(F)F)c1)OC1CN2CCC1CC2` (stereo unspecified) the Potency was inconclusive [inhibitor, partial curve]. In the case of `CC(=O)OC1N=C(c2ccccc2Cl)c2cc(Br)ccc2NC1=O` (stereo unspecified), the Potency is reported as inconclusive [inhibitor, partial curve, poor fit]. For `CCCCCc1cc(O)c2c(c1)OC(C)(C)c1ccc(C)cc1-2`, the Potency was active: 16.8 µM. In the case of `O=C(Nc1ccc(Cl)cc1C(=O)c1ccccc1)c1ccccc1`, the activity change, negative = growth inhibition is reported as inconclusive: -34.5% [inhibitor]. In the case of `COCCCNC(=O)c1c(NC(=O)c2ccco2)n(Cc2ccccc2)c2nc3ccccc3nc12`, the Potency is reported as inconclusive [inhibitor, single point]. With `O=C(C(Cc1ccccc1)NS(=O)(=O)c1ccc(F)cc1)N1CCC2(CC1)OCCO2` (stereo unspecified) the “activity change, negative = growth inhibition” value was inactive: -5.68%. For `O=C1NC(=O)N(CCc2ccc(F)cc2)C(=O)/C1=C/c1cccs1`, the Potency was active: 16.4 µM. For `O=C1NCN(c2ccccc2)C12CCN(C(c1ccccc1)c1nnnn1Cc1ccccc1)CC2` (stereo unspecified), the Potency was inconclusive [inhibitor, single point]. For `CCc1cccc(C)c1N(C(=O)CCl)C(C)COC` (stereo unspecified), the Potency was inconclusive [inhibitor, single point]. For `COc1ccc(OC)c(N2C(=O)NC(=O)/C(=C\c3ccc([N+](=O)[O-])s3)C2=O)c1`, the Potency was active: 16.4 µM. For `Cc1cccn2c(=O)cc(COc3cccc(NC(=O)COc4ccc(F)cc4)c3)nc12`, the Potency was inconclusive [inhibitor, single point]. In the case of `Cc1ccccc1-c1nc(CN2C(=O)CN=C(c3ccccc3)c3ccccc32)c(C)o1`, the Potency is reported as inconclusive [inhibitor, single point]. In the case of `CCCC[C@@H](C)C[C@@H](C)C(=O)N(C)[C@@H](CC(C)C)C(=O)N[C@H](C(=O)N(C)[C@H](C(=O)N1C[C@@H](O)C[C@H]1C(=O)N1C(=O)C=C[C@@H]1C)C(C)C)C(C)OC(C)=O` (stereo partly specified), the Potency is reported as active: 0.0366 µM. With `O=C(CN1CCN(S(=O)(=O)c2cc(Br)ccc2Br)CC1)NCc1ccccc1Cl` the Potency was inconclusive [inhibitor, single point]. With `CCc1ccc(-n2nc(C)c3c2NC(=O)CSC3c2ccc(C(=O)OC)cc2)cc1` (stereo unspecified) the Potency was active: 14.6 µM. In the case of `COc1ccccc1-c1nn2c(=O)cc(CN3CCN(C(=O)COc4ccccc4Cl)CC3)nc2s1`, the Potency is reported as inconclusive [inhibitor, single point]. For `O=[N+]([O-])c1ccc([As](=O)(O)O)cc1`, the “activity change, negative = growth inhibition” value was inactive: 17.8%. With `CC(N)Cc1c[nH]c2cc3c(cc12)OCCO3` (stereo unspecified) the “activity change, negative = growth inhibition” value was inactive: -19.6%. In the case of `CC1(C)C2SCC(=O)N2CCN1CC(=O)NN` (stereo unspecified), the “activity change, negative = growth inhibition” value is reported as inactive: 9.38%. With `CCC(=NCc1ccco1)c1c(O)n(-c2ccccc2)c(=O)[nH]c1=O` the “activity change, negative = growth inhibition” value was inactive: 0.612%. In the case of `CCCc1cc(N2CCN(c3cccc(C)c3C)CC2)n2cnnc2n1`, the Potency is reported as active: 16.4 µM. For `COc1ccc2c(c1)C1(C)CCN(C)CC(C1)C2O` (stereo unspecified), the “activity change, negative = growth inhibition” value was inactive: -23.4%. With `O=C1NC(=O)C(=Cc2ccccc2OCCOc2ccc([N+](=O)[O-])cc2)C(=O)N1` the Potency was inconclusive [inhibitor, single point]. In the case of `COc1ccc(CNC(=O)Cn2c(=O)nc(-c3ccccc3F)c3cc(Cl)ccc32)cc1`, the Potency is reported as active: 1.46 µM. In the case of `O=c1c2ccccc2[nH]c(=S)n1-c1cccc(Cl)c1`, the “activity change, negative = growth inhibition” value is reported as inactive: 0.546%. For `CN(C)c1ccc(P(=O)(OC2CCCCC2)C(Nc2ccccc2)c2cccnc2)cc1` (stereo unspecified), the Potency was inconclusive [inhibitor, partial curve]. For `CCOP(=O)(OCC)C(NC(=O)CN1C(=O)c2ccccc2S1(=O)=O)C(Cl)(Cl)Cl` (stereo unspecified), the “activity change, negative = growth inhibition” value was inactive: 4.64%. For `CCCC1=Nc2cc(C(=O)NCCc3ccc(OCC)cc3)ccc2Sc2ccccc21`, the Potency was inconclusive [inhibitor, single point]. For `O=C(c1cc2nc(-c3ccccc3)cc(-c3ccccc3)n2n1)N1CCC2(CC1)OCCO2`, the Potency was inconclusive [inhibitor, single point]. With `CCOP(=O)(OCC)C(NC(=O)c1cccc2ccccc12)C(Cl)(Cl)Cl` (stereo unspecified) the Potency was inconclusive [inhibitor, single point]. In the case of `CC(C)c1ccc(N2C(=O)CC(=O)NC2=O)cc1`, the “activity change, negative = growth inhibition” value is reported as inactive: -3.84%. With `CCN1CCN(c2ccc(N)cc2C)CC1` the Potency was active: 11.6 µM. In the case of `CC(C)n1c(N2CCN(S(=O)(=O)c3cccc([N+](=O)[O-])c3)CC2)nc2ccccc21`, the Potency is reported as inconclusive [inhibitor, single point]. With `CCOC(=O)CNC(=O)N1c2ccccc2Sc2ccccc21` the Potency was inconclusive [inhibitor, single point]. With `CC(C)(C)c1ccc(S(=O)(=O)Nc2ccc(O)c(Sc3nc4ccccc4s3)c2)cc1` the Potency was active: 18.4 µM. In the case of `O=c1[nH]cc(F)c(=O)[nH]1`, the Potency is reported as active: 18.4 µM. In the case of `COc1ccc(-n2nnnc2C(c2ccccc2)N2CCC3(CC2)C(=O)NCN3c2ccccc2)cc1` (stereo unspecified), the Potency is reported as inconclusive [inhibitor, single point].
